Reference: the RNAGym collection of RNA variant scans (doi:10.1073/pnas.2313332121)
This sample is rich in variants without activity.

B1: TPR 5TU (parent)
chain: GGAUCUUCUCGAUCUAACAAAAAAGACAAAUCUGCCACAAAGCUUGAGAGCAUCUUCGGAUGCAGAGGCGGCAGCCUUCGGUGGCGCGAUAGCGCCAACGUUCUCAACUAUGACACGCAAAACGCGUGCUCCGUUGAAUGGAGUUUAUCAUG

Variants of: B1
Assay: polymerase ribozyme fitness, log enrichment relative to wild type (log ratio); higher = more active; in vitro selection for triplet polymerase activity
How it was run: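 Fitness is a logarithmic measure of how a genotype enriched relative to the wild type, with replicate averages weighted by inverse variance. The logarithm uses base 2, and enrichment came from Illumina sequencing of input and output libraries. Those libraries were PCR-built, transcribed mutants of each subunit of a heterodimeric triplet polymerase ribozyme, passed through one triplicate in vitro selection round that included frozen incubation at −7 °C, gel excision of extended constructs and streptavidin-bead capture. Genotypes were kept only if they had ≥10 input reads and ≥1 read per output.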

Row | Variant | polymerase ribozyme fitness (log ratio)
1 | A66U G74C | ≤ -4.2
2 | G67C C118U | ≤ -4.2
3 | G67U G68A G83U | ≤ -4.2
4 | G65A G94U G100A C108A | ≤ -4.2
5 | C69A C85U C123A | -2.37
6 | C63U C76U C79G G81A G88U C116U G136C A137U | ≤ -4.2
7 | G68C C87U | ≤ -4.2
8 | A64C G88A A138U | ≤ -4.2
9 | G67A U78G C85G C87U G140C A150C | ≤ -4.2
10 | A64U U146C | ≤ -4.2
11 | G68A C108G G141A | ≤ -4.2
12 | G68A A91U C116G | ≤ -4.2
13 | C63U C79U A91U | ≤ -4.2
14 | G65C G74C G88A C93G U146A | ≤ -4.2
15 | G67C C79U C95U A98U U104A C105U | ≤ -4.2
16 | G67A C93A C96A | ≤ -4.2
17 | G65U G80U | ≤ -4.2
18 | G67U C79G | ≤ -4.2
19 | A66U C87U U102A G136A | ≤ -4.2
20 | G68U C79A U90C C95G C96U U111A U148A U151C | ≤ -4.2
21 | G65A C72U A98G A107G | ≤ -4.2
22 | G65U G71U C93A A115C U145A | ≤ -4.2
23 | A64G G65C U82C A113C U139C | ≤ -4.2
24 | G68U G83C A98U U148A | ≤ -4.2

Row | Variant | polymerase ribozyme fitness (log ratio)
25 | C63A C125G G133A G141U | ≤ -4.2
26 | A64U C72A | ≤ -4.2
27 | G68A G71C C95A C116U | ≤ -4.2
28 | G67C A73U U77G G80C C96G U127A U148C | ≤ -4.2
29 | A66C C85U A119G U127C | ≤ -4.2
30 | C69A A121G | -1.74
31 | G67A A73C C87G | ≤ -4.2
32 | C63U C87U A97U C99U G100A G124C A137U | ≤ -4.2
33 | A64G G68A C87A U148A | ≤ -4.2
34 | A66U G86U C103A A142G | ≤ -4.2
35 | G67A U90C | ≤ -4.2
36 | G68U C132U | ≤ -4.2
37 | G65U C85U C108G G140A | ≤ -4.2
38 | A66C C69U G71C G92U A119G U145C | ≤ -4.2
39 | G68U G84A C116G G124A C129A G143U | ≤ -4.2
40 | A64G A66C G70U G84A A89U U146G | ≤ -4.2
41 | A66U G84U G86C A89U | ≤ -4.2
42 | A64U C76U G83C | ≤ -4.2
43 | G65A G86C A142C | ≤ -4.2
44 | C69A A73G A147C U148A A150U U151A | ≤ -4.2
45 | G68A G83C C118U | ≤ -4.2
46 | A66C G136A U139A | ≤ -4.2
47 | G68C C125G | ≤ -4.2
48 | C63U A150U | 0.854

Row | Variant | polymerase ribozyme fitness (log ratio)
49 | A64G A66G | ≤ -4.2
50 | G68U G84A C118A A122G | ≤ -4.2
51 | G68A C75G C96U C105G U109A | ≤ -4.2
52 | G68A A73G C87G G141U | ≤ -4.2
53 | A66U C96A C108G | ≤ -4.2
54 | G62U C72U C93U A122G | -3.31
55 | G65A G136C A147C | -4.13
56 | G65C C85U | -4.04
57 | G67A C87U G140U | ≤ -4.2
58 | G68U C131A | ≤ -4.2
59 | G68A C87A G88A C99U C131U | ≤ -4.2
60 | C63A C87U A89G G124A U145C | ≤ -4.2
61 | G67C A91C | ≤ -4.2
62 | A64G U82A A91U A97C A122G A142C | ≤ -4.2
63 | A66G C85U C99A G141C | ≤ -4.2
64 | A66U A73C U78C G88U A107G | ≤ -4.2
65 | A66C C85U C103U A120G C123A | ≤ -4.2
66 | G68C G94A C96G C103G U134A | ≤ -4.2
67 | A64U G83C C87G G126C U144C U148A G152U | ≤ -4.2
68 | A64G A73G G88C A89G G92A A115G C118A U148C | ≤ -4.2
69 | A64U G84C | ≤ -4.2
70 | G68C G80U A89U C95U U104G | ≤ -4.2
71 | G68U A89G C99A U102A | ≤ -4.2
72 | A66C C116U U139G | ≤ -4.2

Row | Variant | polymerase ribozyme fitness (log ratio)
73 | G67C C76A G83C C96A A115C U144A | ≤ -4.2
74 | G65A G84U | -2.89
75 | G68C A89C C96A A113G G124C U134C | ≤ -4.2
76 | C63G A66U G68C C85U G124C | ≤ -4.2
77 | G68U G71C C96U | ≤ -4.2
78 | A66C C132U U139G | ≤ -4.2
79 | C69A C85U C99G C125U | ≤ -4.2
80 | G68C A150U | ≤ -4.2
81 | C69A G88C | ≤ -4.2
82 | A66U G152A | ≤ -4.2
83 | G65A C69U C76U U78C C79U G86C | ≤ -4.2
84 | C63G C108G C129G | ≤ -4.2
85 | G67A G81U C85G C95U A142C U144G | ≤ -4.2
86 | C63G G67A A106U C108G G117A | ≤ -4.2
87 | C69A A120C | -1.7
88 | A64U | -3.99
89 | A64G | -2.27
90 | A64C | ≤ -4.2
91 | G68A A91U A107C A110G G141A | ≤ -4.2
92 | G65C C85U A119U C123U | ≤ -4.2
93 | G68A C96U | -3.68
94 | G68U A98U C103A A110U | ≤ -4.2
95 | A64U A91U A115U | ≤ -4.2
96 | G65C C87A A106U G143A | ≤ -4.2

Row | Variant | polymerase ribozyme fitness (log ratio)
97 | G68A U151G | ≤ -4.2
98 | G68A A137U U139A | ≤ -4.2
99 | A66C G84A A110G A115G | ≤ -4.2
100 | G68A G81C G84A A150G | ≤ -4.2
101 | G67A C87A A97C G143C | ≤ -4.2
102 | G65C C93G | ≤ -4.2
103 | C69A C85G A106G | ≤ -4.2
104 | G68A G71C C96U C125A | ≤ -4.2
105 | G68A G133U A138U A147U | ≤ -4.2
106 | G67U C79U G83U G88C | ≤ -4.2
107 | A66U A91U C96U C116G U130G | ≤ -4.2
108 | G68A A97U G112U A113U | ≤ -4.2
109 | G67A G71A C95U | ≤ -4.2
110 | G68A C85G A120C U148G | ≤ -4.2
111 | A66G C87U | -3.68
112 | A66G G70A C96A | ≤ -4.2
113 | G67U C69A G83A G92A | ≤ -4.2
114 | G68A A91U | ≤ -4.2
115 | C63U C87A A121U U135A G136A | ≤ -4.2
116 | A66G U101G A107G A120G U139A | ≤ -4.2
117 | G68A C75A U77A C95A A97G | ≤ -4.2
118 | G68C A91U U102G | ≤ -4.2
119 | C63G U77G G88U A89C A91G C95A | ≤ -4.2
120 | G68A G83C | ≤ -4.2

Row | Variant | polymerase ribozyme fitness (log ratio)
121 | G65A C85A G143C | ≤ -4.2
122 | A66U A73G C85G C95A C123U C125G A150G | ≤ -4.2
123 | G68C A89G A98G G100U | ≤ -4.2
124 | A64G G94A U139G | ≤ -4.2
125 | A66U C93U | ≤ -4.2
126 | G67A G84A | ≤ -4.2
127 | G67C G88C A97U U111C | ≤ -4.2
128 | G68C G83U C103U A106G | ≤ -4.2
129 | A64C C96A C103A A115C | ≤ -4.2
130 | G67A G84U A120G | ≤ -4.2
131 | G68A G74C A98G C99U G100A C103A | ≤ -4.2
132 | A64U C93U | ≤ -4.2
133 | C63U C87A C103A G136A | ≤ -4.2
134 | C69A C76U G84U U127A | ≤ -4.2
135 | A64U G86A A91C C99G G141A | ≤ -4.2
136 | A66U C69A C131G | ≤ -4.2
137 | C63U C79G G94A A110G G143U | ≤ -4.2
138 | G62U C72A U78C A91G G94U | ≤ -4.2
139 | A64C C93U | ≤ -4.2
140 | G67U U77G C79G C99U C118U | ≤ -4.2
141 | A66C U77A A91U U127C | ≤ -4.2
142 | A64U U78G G88C | ≤ -4.2
143 | A66G C75U C79G C85A A142C | ≤ -4.2
144 | G68C G140U | ≤ -4.2

Row | Variant | polymerase ribozyme fitness (log ratio)
145 | G67U U109G G141A | ≤ -4.2
146 | A64G G84A C99A C114A | ≤ -4.2
147 | A66U G84U C87A | ≤ -4.2
148 | A66G C85U G86U | ≤ -4.2
149 | A64G C76A G86A C108G A113U | ≤ -4.2
150 | G65C G81U G94C C105G A115G C129U A138C | ≤ -4.2
151 | G67A G92A C95A U151C | ≤ -4.2
152 | A64C G71A U144G U148G | ≤ -4.2
153 | G68C G80A G81A C85G G86U G100A | ≤ -4.2
154 | A64U A66G G84A | ≤ -4.2
155 | A64G C85U A91G C99U C105G | ≤ -4.2
156 | A64U C96U C103U U144A | ≤ -4.2
157 | A66C C76U | -3.47
158 | A64C G67U G70A C93U | ≤ -4.2
159 | C69A C76G C79A U102A G141C | ≤ -4.2
160 | A64U G80A U82G C95U | ≤ -4.2
161 | G65C A73U | ≤ -4.2
162 | G68C G94C U111A G133A | ≤ -4.2
163 | G68A G88A U145C | ≤ -4.2
164 | G65A G67A G70C G80C G81A C93A C108A G124A U144A | ≤ -4.2
165 | G68A C96A G143U U151G | ≤ -4.2
166 | G65A G74C G140U A147G | ≤ -4.2
167 | A64C C75G C96G | ≤ -4.2
